Experimental data as given in ChEMBL document CHEMBL4888484, “Replenishing the malaria drug discovery pipeline: Screening and hit evaluation of the MMV Hit Generation Library 1 (HGL1) against asexual blood stage Plasmodium falciparum ,using a nano luciferase reporter read-out” (2022).
Screen size: about 150,000 compounds; about 540 (0.36%) showed an effect of 50% or more. The list shows a part of the results.

system: Plasmodium falciparum; test: Primary screen in NF54 nanoGlo assay, in single point, at 2uM, 72h; a lower Z score goes with more inhibition; assay type: functional, Erythrocyte; conditions: timepoint 72 hour

Structure (SMILES) | % Inhibition [%] | Z score
CC(C)Cc1ncc(CNC(=O)N2CCC(C(C)O)C2)s1 (stereo unspecified) | -9 | 1.18
CC(C)(NC(=O)Cn1cnnn1)c1cccs1 | 1 | -0.19
CC(=O)N(C)c1nc2ccccc2n(CC(=O)Nc2ccccc2Br)c1=O | -2 | 0.35
O=C(Nc1ccc(-c2cccc(F)c2)c(F)c1)N[C@@]1(CO)CCOC1 | 15 | -1.68
CCc1ccc(C(=O)NCCNC(=O)C(C)C)o1 | -7 | 1.32
COCCN(C(=O)c1cn(-c2ccc(F)cc2)nn1)c1ccc(C#N)cc1 | -8 | 0.85
Cc1nc(C(=O)N2CCN(C)Cc3ccccc32)cs1 | -19 | 1.61
CCc1nc(C)c(C(=O)NCCc2nc3cc(C)ccc3[nH]2)o1 | 2 | -0.31
COc1ccc([C@H]2CC(=O)Nc3nc(N4CCCCC4)sc32)cc1OC | -28 | 3.65
Cc1ccc([C@@H](C)CCNCc2ccc3nsnc3c2)o1 | 2 | -0.45
O=C(O)C1CCCC(C(=O)N2CCc3ccccc3C2)C1 (stereo unspecified) | -13 | 1.55
CC(C)(C)C1CNC(=O)C1C(=O)Nc1ccc(C(F)(F)F)cc1 (stereo unspecified) | -3 | 0.53
CCC/C=C/c1nccc(N2CCC[C@H](O)C2)n1 | -9 | 1.16
Cc1cc2c(N3CCCC(C(=O)NC(C)c4ccc(C)c(C)c4)C3)nccc2s1 (stereo unspecified) | -7 | 1.2
C=CCCN1C(=O)N[C@@](C)(CCC)C1=O | -7 | 0.79
C[C@H](NC(=O)CCc1ccccc1Cl)c1ccncc1 | 1 | -0.14
C[C@H](OC(=O)C1=CCCCCC1)C(N)=O | -2 | 0.26
Cc1ccc2[nH]c3c(N4CCC5(CC4)OCCO5)ncnc3c2c1 | -2 | 0.35
COCCN1C(=O)c2ccc(Oc3ccc(Oc4ccc5c(c4)C(=O)N(CCOC)C5=O)cc3)cc2C1=O | -8 | 0.93
Cc1ccc(=O)n(Cc2nsc(N(C)C)n2)n1 | 6 | -0.9
CCCCN(C)C(=O)COc1cc(C)nc(-c2ccc(Cl)cc2)n1 | -9 | 1.63

Structure (SMILES) | % Inhibition [%] | Z score
O=C1CCN(Cc2cc(Cl)c3c(c2)OCCCO3)CCN1 | -28 | 3.28
CC1CN(C(C)c2nc(-c3cccs3)no2)CC(C)O1 (stereo unspecified) | -6 | 1.02
CN1CC[C@H]2CC[C@@H](C1)N2Cc1cc2cc3c(cc2nc1-c1ccc(F)cc1)OCO3 | -2 | 0.23
O=C(NCc1ccc(Br)cc1)N1CCC2(C1)OCCO2 | -13 | 1.64
CC(C)Oc1ccc(NS(=O)(=O)CC(=O)N[C@@H](Cc2ccccc2)c2ccccc2)cc1 | -4 | 0.36
Cc1nc2ncnn2c(Oc2ccc(-c3ccccc3)cc2)c1C | -15 | 1.8
O=C(Nc1nc(C2CC2)cs1)NC1CCN(C2CCCC2)CC1 | 1 | -0.26
Cc1cccc(Oc2c(CCC(=O)NCCN3CCCC3)c(C)nn2-c2cccc(C)c2)c1 | 3 | -0.39
Cc1nn(-c2ccccc2)c2ncc(S(=O)(=O)N3C[C@H](O)C(C)(C)C3)cc12 | -3 | 0.53
CC1CC(c2ccc(F)cc2)CN1C(=O)C(N)CCS(C)(=O)=O (stereo unspecified) | -12 | 1.5
COc1ccc(-c2nc(C3(NC(=O)C(F)(F)F)CC3)cs2)cc1 | -7 | 1.17
CC[C@H](C)N(Cc1ccc(OC)c(OS(=O)(=O)c2ccc(F)cc2)c1)C(=O)Nc1ccc(C(F)(F)F)cc1 | -12 | 1.1
CN(C)C(=O)N1CCN(Cc2noc(C3CCCC3)n2)[C@@H]2CS(=O)(=O)C[C@@H]21 | 0 | 0.04
O=C(C[C@@H]1O[C@H](CNS(=O)(=O)c2ccc(Cl)cc2)[C@@H](O)[C@H]1O)NC1CC1 | 32 | -3.58
CC1(C)C[C@@H](O)CCN(c2nnc(-c3ccccc3)s2)C1 | -14 | 1.84
O=C1N(CN2CCCCC2)c2ccccc2C12OCCCCO2 | -20 | 2.62
COCCn1c(=O)c2c(ncn2Cc2cccc(Cl)c2)n(-c2ccccc2C)c1=O | -7 | 0.68
O=S(=O)(c1ccc(Oc2ccc(-c3nnco3)cc2)nc1)N1CCC(Cc2ccccc2)CC1 | -17 | 1.47
CCC(=O)N1c2ccc(S(=O)(=O)N3CCCCC3)cc2C[C@H]1C(=O)NCCCN1CCOCC1 | -15 | 1.97
O=C(c1nccn2ccnc12)N(Cc1ccncc1)CC1CCCCC1 | -1 | 0.11
Cc1nnc(CN(C(=O)c2sc(C)nc2C)C(C)(C)C)o1 | 4 | -0.45

Structure (SMILES) | % Inhibition [%] | Z score
COC(C)(C)C[C@H](C)Nc1ccnc(N(C)C)n1 | 15 | -1.88
CCC1(NC(=O)N(C)Cc2nc(C)c[nH]2)CCCC1 | -5 | 0.68
CC(C)OCc1noc(CN2CC(C)(C)O[C@H]3COC[C@@H]32)n1 | -1 | 0.16
Cc1cc(C(=O)NCC(=O)Nc2cn[nH]c2)no1 | -9 | 0.96
CCn1ccnc1C(=O)N1CCC[C@H](S(=O)(=O)N2CCc3ccccc32)C1 | 5 | -0.52
COc1ccc(N2C[C@@H](c3noc(-c4cc(F)cc(F)c4)n3)CC2=O)cc1 | -13 | 1.17
CCc1cc2c(N3CCOCC3)nc(-c3ccccc3)nc2s1 | -26 | 2.4
O=C(CCc1ccc(=O)[nH]c1)N1CCOCC12CCC2 | -11 | 1.64
Cc1nc[nH]c1-c1nccn1-c1cccc(N2CCNC2=O)c1 | 13 | -1.68
CCOC1CC(N(C)C(=O)C2CCN(C)C(=O)C2)C12CCCC2 (stereo unspecified) | -2 | 0.29
COc1ccc(CCNCC(=O)N2CCc3ccccc3C2)cc1OC | -2 | 0.38
O=C(N[C@@H](CC1CC1)c1ccccc1)N1CC(N2CCCC2=O)C1 | -18 | 2.15
c1ccc2cc(-c3cn(CCCN4CCOCC4)nn3)ccc2c1 | -5 | 0.95
COc1ccc2oc(CNC(=O)CCn3nnnc3C)nc2c1 | -5 | 0.95
O=S(=O)(O)c1cc(O)c2cc(Nc3ccccc3)ccc2c1 | -9 | 1.67
CC(=O)Nc1ccc(S(=O)(=O)[C@H]2CS(=O)(=O)C[C@@H]2NCc2cccc(C)c2)cc1 | -8 | 0.97
CCn1ccc2cc(-c3nc([C@H]4CCOC4)no3)ccc21 | -16 | 1.81
COC(=O)CN(C(=O)Cc1ccc(C)nc1)c1cccc(F)c1 | -14 | 1.89
O=C(Cn1cccnc1=O)NCc1ccc2c(c1)OCO2 | -4 | 0.5
Cc1ccc(-c2nnc3c4ccc(Cl)cc4nc(N4CCN(C(=O)C5CCC5)[C@@H](C)C4)n23)cc1 | -11 | 1.66
CNC(=O)CCC(C)(C)Nc1nccnc1OC | 5 | -0.51

Structure (SMILES) | % Inhibition [%] | Z score
CC(C)(C)C1CCC2(CC1)[C@H](C(=O)c1ccc(F)cc1)C2(C#N)C#N (stereo partly specified) | -14 | 2.04
N#Cc1ccc(OCCN(CCOc2ccc(C#N)cc2)CCn2cccn2)cc1 | -17 | 1.54
Cc1cc(C)n2nc(C(=O)Nc3c(C)cccc3C)c(-c3ccc(C)c(S(=O)(=O)N4CCCC4)c3)c2n1 | -11 | 1.07
COc1cc(OC)cc(C2(O)CCN(Cc3ccon3)CC2)c1 | -13 | 1.8
CC(=O)N(CCN1CCOCC1)CC(=O)N1CCCN(c2ccc(-c3ccccc3)nn2)CC1 | -5 | 0.86
C#CCOC[C@@H](O)CN(Cc1ccc(F)cc1)Cc1ccc(F)cc1F | -10 | 1.47
C[C@H](NS(=O)(=O)N1CCCCC1)c1cnn(C)c1 | -13 | 1.16
NC(=O)[C@H]1CC=CC[C@@H]1NC(=O)c1ccccc1-n1cnnc1 | -1 | 0.1
CN(CC(=O)NC(=O)NC1CCCC1)Cc1ccco1 | -2 | 0.37
Cc1oc(-c2ccccc2)nc1CN(Cc1ccccn1)C(C)C | -4 | 0.73
Cc1ccc(Cn2c(=O)c(C(=O)N[C@@H](C)c3ccccc3)nn(-c3cccc(F)c3)c2=O)cc1 | -2 | 0.27
COc1ccc(CN2C(=O)N[C@@H](CC(=O)Nc3nc(C)cs3)C2=O)cc1 | 2 | -0.3
COc1ccc(OCCNc2ccc(C(=O)NC(C)C)nn2)cc1 | 1 | -0.23
Nc1ccc(S(=O)(=O)C(F)F)cc1 | -6 | 0.53
C[C@]1(c2noc(C3CCOCC3)n2)CCCN(C(=O)CC2CCCC2)C1 | -1 | 0.21
CC(C)(O)CC(=O)N(Cc1ccncc1)C1CC1 | -12 | 1.24
N[C@@H]1CC[C@@H]1NC(=O)c1nc(N2CCCC2)nc2c1CCCC2 | 0 | -0.03
Cc1csc(NC(=O)CCc2ccc(S(=O)(=O)N3CCCC3)cc2)n1 | -11 | 1.43
COc1ccc(C(=O)N2CC[C@H](n3c(-c4ccc(OC)cc4)nc4cccnc43)C2)cc1 | -12 | 1.82
O=c1c2c(cnn1CN1CCN(c3ccccc3)CC1)CCCC2 | -21 | 2.62
